Measured values reported in patent publication US11130803B2, “Isoform-selective TGFβ1 inhibitors and use thereof” (Scholar Rock, Inc., priority 2018, dated 2021).
Substitutions are numbered along the chain they refer to.

B1: Ab35: monoclonal antibody; VH SEQ ID NO: 252, VL SEQ ID NO: 236 (antibody, V domains shown)
VH: EVQLLESGGGLVQPGGSLRLSCAASGFTFRNYAMSWVRQAPGKGLEWVSSISGSGGATYYADSVKGRFTISRDNSKNTLYLQMNSLRAEDTAVYYCARVSSYLWDFDYWGQGTLVTVSS
VL: [… about 100 residues …]FTFGQGTKVEIK
B2: Ab7: monoclonal antibody; VH SEQ ID NO: 235, VL SEQ ID NO: 236 (antibody, V domains shown)
VH: B1 VH with R30A, N31D, S35T, S50A, S54T, G56A, A57H, Y102G, L103H
VL: [… about 100 residues …]FTFGQGTKVEIK
B3: Ab8: monoclonal antibody; VH SEQ ID NO: 237, VL SEQ ID NO: 236 (antibody, V domains shown)
VH: QVQLVESGGGVVQPGRSLRLSCAASGFTFSDYAMVWVRQAPGKGLEWVSAISGSGFTTYYADSVKGRFTISRDNSKNTLYLQMNSLRAEDTAVYYCARVSSGHWDFDYWGQGTLVTVSS
VL: [… about 100 residues …]FTFGQGTKVEIK
B4: Ab9: monoclonal antibody; VH SEQ ID NO: 238, VL SEQ ID NO: 236 (antibody, V domains shown)
VH: B3 VH with R16G, D31S, Y32F, V35T, F56A, T57A, Y60F
VL: [… about 100 residues …]FTFGQGTKVEIK
B5: Ab36: monoclonal antibody; VH SEQ ID NO: 253, VL SEQ ID NO: 236 (antibody, V domains shown)
VH: B1 VH with Y102G, L103H, F106L
VL: [… about 100 residues …]FTFGQGTKVEIK

test system: hLTBP1-/hLTBP3-proTGFβ1 vs hGARP-/hLRRC33-proTGFβ1 complexes; test: Solution equilibrium titration: relative affinity (bias) LTBP complexes vs cell-associated complexes; format: binding, human; settings: not given
Source text: Context-biased: As used herein, “context-biased antibodies” refer to a type of conformational antibodies that binds an antigen with differential affinities when the antigen is associated with (i.e., bound to or attached to) an interacting protein or a fragment thereof. Thus, a context-biased antibody that specifically binds an epitope within proTGFβ1 may bind LTBP1-proTGFβ1, LTBP3-proTGFβ1, GARP-proTGFβ1 and LRRC33-proTGFβ1 with different affinities. […] Relative affinities of [matrix-associated complexes]: [cell-associated complexes] may be obtained by taking average KD values of the former, taking average KD values of the latter, and calculating the ratio of the two, as exemplified herein.
In a yet further aspect, the present disclosure provides context-biased TGFβ1 inhibitors. The context-biased antibodies include LTBP-biased antibodies with higher affinities for ECM-associated LLCs than for cell-associated LLCs wherein the affinities are measured at equilibrium.

Molecule	matrix/LTBP-bias in relative affinities between at least one matrix-associated and at least one cell-associated complex
B1	more than five-fold

same assay, conditions: MSD-SET, average KD of (B) and (C); read-out: (D) ECM AVRG

Molecule	Kd [nM]
B1	0.265

same assay, conditions: MSD-SET, ratio of average KD cell-associated / matrix-associated

Molecule	(H) G/D (fold bias) [fold]
B1	4.15

target: T1, recombinant human LTBP3-proTGFβ1 complex (Homo sapiens, UniProt P01137); test: Octet (Biolayer Interferometry) in vitro kinetic binding; settings: in M
T1 construct: made in house; host or cells: Expi293F cells, transient co-transfection
Source text: (§1) Biolayer Interferometry (BLI):BLI is a label-free technology for optically measuring biomolecular interactions, e.g., between a ligand immobilized on the biosensor tip surface and an analyte in solution. BLI provides the ability to monitor binding specificity, rates of association and dissociation, or concentration, with precision and accuracy. BLI platform instruments are commercially available, for example, from ForteBio and are commonly referred to as the Octet® System.
(§2) BLI-based binding assays are widely used in the art for measuring affinities and kinetics of antibodies to antigens. It is a label-free technology in which biomolecular interactions are analyzed on the basis of optical interference. One of the proteins, for example, an antibody being tested, can be immobilized on the biosensor tip. When the other protein in solution, for example, an antigen, becomes bound to the immobilized antibody, it causes a shift in the interference pattern, which can be measured in real-time. This allows the monitoring of binding specificity, rates of association and dissociation, as well as concentration dependency. […] Due to its ease of use and fast results, BLI-based assays such as the Octet® system (available from ForteBio/Molecular Devices, Fremont Calif.), are particularly convenient when used as an initial screening method to identify and separate a pool of “binders” from a pool of “non-binders” or “weak binders” in the screening process.
(§3) Table 8 below provides non-limiting examples of high-affinity, context-independent proTGFβ1 antibodies encompassed by the present invention. The table provides representative results from in vitro binding assays, as measured by Octet®.
(§4) Column (A) of the table lists monoclonal antibodies with discrete amino acid sequences. […] Columns (B), (D), (E) and (F) provide affinities of each of the listed antibodies, measured in KD. […] Average KD values of (B) and (C) are shown in the corresponding column (D), which collectively represents affinities of the antibodies to ECM- or matrix-associated proTGFβ1 complexes. Similarly, Average KD values of (E) and (F) are shown in the corresponding column (G), which collectively represents affinities of the antibodies to cell-surface or cell-associated proTGFβ1 complexes. Finally, relative ratios between the average KD values from columns (D) and (G) are expressed as “fold bias” in column (H). Thus, the greater the number of column (H) is, the greater bias exists for the particular antibody, when comparing binding preferences of the antibody for matrix-associated complexes and cell-surface complexes. This is one way of quantitatively representing and comparing inherent bias of antibodies to their target complexes. Such analyses may be useful in guiding the selection process for a candidate antibody for particular therapeutic use.
(§5) In some embodiments, the binding affinity of an antibody, or antigen binding portion thereof, to an antigen (e.g., protein complex), such as presenting molecule-proTGFβ1 complexes, is determined using an Octet assay. In some embodiments, an Octet assay is an assay that determines one or more a kinetic parameters indicative of binding between an antibody and antigen. In some embodiments, an Octet® system (ForteBio, Menlo Park, Calif.) is used to determine the binding affinity of an antibody, or antigen binding portion thereof, to presenting molecule-proTGFβ1 complexes. For example, binding affinities of antibodies may be determined using the fortéBio Octet QKe dip and read label free assay system utilizing bio-layer interferometry. In some embodiments, antigens are immobilized to biosensors (e.g., streptavidin-coated biosensors) and the antibodies and complexes (e.g., biotinylated presenting molecule-proTGFβ1 complexes) are presented in solution at high concentration ([…]) to measure binding interactions. […]

T1 sequence (P01137 30-390): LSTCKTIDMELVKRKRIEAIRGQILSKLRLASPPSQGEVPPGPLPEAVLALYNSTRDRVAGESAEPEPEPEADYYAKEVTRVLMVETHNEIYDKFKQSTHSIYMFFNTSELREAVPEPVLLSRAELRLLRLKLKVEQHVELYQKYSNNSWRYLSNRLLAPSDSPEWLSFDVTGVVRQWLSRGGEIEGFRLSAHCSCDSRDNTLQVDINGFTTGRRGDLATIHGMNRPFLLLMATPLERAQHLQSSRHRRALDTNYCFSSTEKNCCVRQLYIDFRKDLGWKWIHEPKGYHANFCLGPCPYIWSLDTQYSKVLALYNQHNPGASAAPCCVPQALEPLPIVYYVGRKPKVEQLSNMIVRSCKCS
T1 sequence (Q9NS15 866-1039 partner limits assumed): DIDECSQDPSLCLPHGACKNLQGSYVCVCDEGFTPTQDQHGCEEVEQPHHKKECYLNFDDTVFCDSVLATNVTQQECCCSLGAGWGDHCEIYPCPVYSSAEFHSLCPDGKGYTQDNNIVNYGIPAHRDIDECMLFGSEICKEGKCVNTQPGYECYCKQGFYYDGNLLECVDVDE

Molecule	(C) hLTBP3, Matrix-associated proTGFb1 (KD)
B1	1.69E−10
B2	4.17E−10
B3	3.02E−10
B4	2.84E−10
B5	4.15E−10

target: T2, recombinant human LRRC33-proTGFβ1 complex (Homo sapiens, UniProt P01137); test: as above; settings: in M
T2 construct: made in house
Source text: as §1, §2, §3, §4, §5

T2 sequence (P01137 30-390): as the sequence (P01137 30-390) above
T2 sequence (Q86YC3 19-650 partner limits assumed): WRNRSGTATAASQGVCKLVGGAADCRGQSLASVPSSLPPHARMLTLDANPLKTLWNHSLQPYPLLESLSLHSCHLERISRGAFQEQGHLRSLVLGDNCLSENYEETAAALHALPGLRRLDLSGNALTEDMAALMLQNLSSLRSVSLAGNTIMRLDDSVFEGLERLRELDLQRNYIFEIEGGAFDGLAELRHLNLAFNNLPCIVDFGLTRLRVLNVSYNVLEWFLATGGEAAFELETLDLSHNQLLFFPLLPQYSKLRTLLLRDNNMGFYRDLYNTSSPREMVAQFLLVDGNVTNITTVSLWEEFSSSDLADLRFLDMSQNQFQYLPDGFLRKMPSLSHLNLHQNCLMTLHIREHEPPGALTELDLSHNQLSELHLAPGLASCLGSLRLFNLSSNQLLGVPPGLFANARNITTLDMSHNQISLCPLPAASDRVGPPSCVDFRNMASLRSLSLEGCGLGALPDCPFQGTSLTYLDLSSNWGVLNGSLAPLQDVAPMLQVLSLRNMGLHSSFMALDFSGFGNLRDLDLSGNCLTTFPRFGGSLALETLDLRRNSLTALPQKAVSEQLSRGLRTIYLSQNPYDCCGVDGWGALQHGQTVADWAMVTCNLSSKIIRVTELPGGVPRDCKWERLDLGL

Molecule	(F) hLRRC33, Cell-associated proTGFb1 (KD)
B1	5.45E−10
B2	1.03E−08
B3	1.00E−08
B4	1.30E−09
B5	1.42E−09

target: T3, recombinant human GARP-proTGFβ1 complex (Homo sapiens, UniProt P01137); test: as above; settings: in M
T3 construct: made in house
Source text: as §1, §2, §3, §4, §5

T3 sequence (P01137 30-390): as the sequence (P01137 30-390) above
T3 sequence (Q14392 20-627 partner limits assumed): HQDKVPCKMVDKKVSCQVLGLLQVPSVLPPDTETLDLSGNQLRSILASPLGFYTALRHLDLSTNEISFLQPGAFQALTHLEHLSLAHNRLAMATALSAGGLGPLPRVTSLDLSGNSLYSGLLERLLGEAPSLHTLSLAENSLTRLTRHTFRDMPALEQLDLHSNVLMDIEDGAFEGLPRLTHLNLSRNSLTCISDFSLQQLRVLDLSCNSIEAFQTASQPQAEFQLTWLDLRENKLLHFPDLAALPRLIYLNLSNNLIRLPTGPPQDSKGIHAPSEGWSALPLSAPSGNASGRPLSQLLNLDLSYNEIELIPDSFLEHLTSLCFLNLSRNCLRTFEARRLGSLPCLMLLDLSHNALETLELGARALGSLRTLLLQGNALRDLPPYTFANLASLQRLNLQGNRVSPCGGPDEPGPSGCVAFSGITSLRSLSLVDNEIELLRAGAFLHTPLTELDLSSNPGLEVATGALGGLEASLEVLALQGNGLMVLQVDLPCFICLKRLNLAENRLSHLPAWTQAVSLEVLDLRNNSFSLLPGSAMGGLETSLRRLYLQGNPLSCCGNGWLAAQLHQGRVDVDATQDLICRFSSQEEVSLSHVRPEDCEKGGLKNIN

Molecule	(E) hGARP, Cell-associated proTGFb1 (KD)
B1	7.37E−09
B2	1.80E−08
B3	1.54E−08
B4	1.55E−08
B5	1.28E−08

target: T4, recombinant human LTBP1-proTGFβ1 complex (Homo sapiens, UniProt P01137); test: as above; settings: in M
T4 construct: made in house; host or cells: Expi293F cells, transient co-transfection
Source text: as §1, §2, §3, §4, §5

T4 sequence (P01137 30-390): as the sequence (P01137 30-390) above
T4 sequence (Q14766 873-1507 partner): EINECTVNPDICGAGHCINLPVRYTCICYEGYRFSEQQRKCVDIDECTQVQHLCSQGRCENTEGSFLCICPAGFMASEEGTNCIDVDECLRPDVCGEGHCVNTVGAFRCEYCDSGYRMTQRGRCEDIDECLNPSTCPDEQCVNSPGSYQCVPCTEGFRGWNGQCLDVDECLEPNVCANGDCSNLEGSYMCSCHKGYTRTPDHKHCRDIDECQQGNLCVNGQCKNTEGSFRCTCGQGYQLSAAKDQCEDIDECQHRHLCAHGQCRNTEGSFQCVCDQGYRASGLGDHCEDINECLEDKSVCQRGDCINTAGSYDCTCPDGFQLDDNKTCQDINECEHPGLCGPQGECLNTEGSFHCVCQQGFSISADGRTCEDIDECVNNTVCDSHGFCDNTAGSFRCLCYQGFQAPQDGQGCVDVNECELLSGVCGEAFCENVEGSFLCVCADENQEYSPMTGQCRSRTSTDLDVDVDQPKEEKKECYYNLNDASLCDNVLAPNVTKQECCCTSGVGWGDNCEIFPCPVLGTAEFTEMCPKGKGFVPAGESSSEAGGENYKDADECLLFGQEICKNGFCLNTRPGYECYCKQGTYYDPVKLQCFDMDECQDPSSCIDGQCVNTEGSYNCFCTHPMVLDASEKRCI

Molecule	(B) hLTBP1, Matrix-associated proTGFb1 (KD)
B1	1.59E−10
B2	4.87E−10
B3	3.29E−10
B4	3.48E−10
B5	3.53E−10

target: T5, hGARP-proTGFβ1 (Homo sapiens, UniProt P01137); test: MSD-SET solution equilibrium titration binding; settings: MSD-SET at equilibrium, hIgG4, human complex; in M
T5 construct: made in house
Source text: (§6) Solution Equilibrium Titration (SET): The SET is an assay whereby binding between two molecules (such as an antigen and an antibody that binds the antigen) can be measured at equilibrium in a solution. For example, Meso-Scale Discovery (“MSD”)-based SET, or MSD-SET, is a useful mode of determining dissociation constants for particularly high-affinity protein-protein interactions at equilibrium, such as picomolar-affinity antibodies binding to their antigens (see, for example: Ducata et al. (2015) J Biomolecular Screening 20(10): 1256-1267). The SET-based assays are particularly useful for determining KD values of antibodies with sub-nanomolar (e.g., picomolar) affinities.
(§7) In view of this, it is contemplated that assays that measure binding affinities of such antibodies at equilibrium may more accurately represent the mode of target engagement in vivo. Thus, MSD-SET-based binding assays (or other suitable assays) may be performed, as exemplified in Table 9 below.
(§8) Solution equilibrium titration (“SET”) is an assay whereby binding between two molecules (such as an antigen and an antibody that binds the antigen) can be measured at equilibrium in a solution. For example, Meso-Scale Discovery (“MSD”)-based SET, or MSD-SET, is a useful mode of determining dissociation constants for particularly high-affinity protein-protein interactions at equilibrium (see, for example: Ducata et al. (2015) J Biomolecular Screening 20(10): 1256-1267). The SET-based assays are particularly useful for determining KD values of antibodies with sub-nanomolar (e.g., picomolar) affinities.
(§9) For solution equilibrium titration-based binding assays, protein complexes that comprise one of the presenting molecules such as those shown above may be employed as antigen (presenting molecule-TGFβ1 complex, or an LLC). Test antibodies are allowed to form antigen-antibody complex in solution. Antigen-antibody reaction mixtures are incubated to allow an equilibrium to be reached; the amount of the antigen-antibody complex present in the assay reactions can be measured by suitable means well known in the art. As compared to BLI-based assays, SET-based assays are less affected by on/off rates of the antigen-antibody complex, allowing sensitive detection of very high affinity interactions.

T5 sequence (P01137 30-390): as the sequence (P01137 30-390) above
T5 sequence (Q14392 20-627 partner limits assumed): as the sequence (Q14392 20-627 partner limits assumed) above

Molecule	(E) hGARP, Cell-associated proTGFβ1 KD
B1	1.10E−09

target: T6, hLTBP1-proTGFβ1 (Homo sapiens, UniProt P01137); test: MSD-SET solution equilibrium titration binding; settings: MSD-SET at equilibrium, hIgG4, human complex; in M
T6 construct: made in house; host or cells: Expi293F cells, transient co-transfection
Source text: as §6, §7, §8, §9

T6 sequence (P01137 30-390): as the sequence (P01137 30-390) above
T6 sequence (Q14766 873-1507 partner): as the sequence (Q14766 873-1507 partner) above

Molecule	(B) hLTBP1, Matrix-associated proTGFβ1 KD
B1	2.70E−10

target: T7, hLTBP3-proTGFβ1 (Homo sapiens, UniProt P01137); test: MSD-SET solution equilibrium titration binding; settings: MSD-SET at equilibrium, hIgG4, human complex; in M
T7 construct: made in house; host or cells: Expi293F cells, transient co-transfection
Source text: as §6, §7, §8, §9

T7 sequence (P01137 30-390): as the sequence (P01137 30-390) above
T7 sequence (Q9NS15 866-1039 partner limits assumed): as the sequence (Q9NS15 866-1039 partner limits assumed) above

Molecule	(C) hLTBP3, Matrix-associated proTGFβ1 KD
B1	2.60E−10

target: T8, hLRRC33-proTGFβ1 (Homo sapiens, UniProt P01137); test: MSD-SET solution equilibrium titration binding; settings: MSD-SET at equilibrium, hIgG4, human complex; in M
T8 construct: made in house
Source text: as §6, §7, §8, §9

T8 sequence (P01137 30-390): as the sequence (P01137 30-390) above
T8 sequence (Q86YC3 19-650 partner limits assumed): as the sequence (Q86YC3 19-650 partner limits assumed) above

Molecule	(F) hLRRC33, Cell-associated proTGFβ1 KD
B1	1.10E−09

test system: matrix-associated (LTBP1/LTBP3) and cell-associated (GARP/LRRC33) proTGFβ1 complexes; test: Octet: average KD and fold bias, matrix- vs cell-associated complexes; format: binding, human; settings: average KD of (E) and (F), cell-associated complexes, read-out: (G) Cell AVRG
Source text: Column (A) of the table lists monoclonal antibodies with discrete amino acid sequences. […] Columns (B), (D), (E) and (F) provide affinities of each of the listed antibodies, measured in KD. […] Average KD values of (B) and (C) are shown in the corresponding column (D), which collectively represents affinities of the antibodies to ECM- or matrix-associated proTGFβ1 complexes. Similarly, Average KD values of (E) and (F) are shown in the corresponding column (G), which collectively represents affinities of the antibodies to cell-surface or cell-associated proTGFβ1 complexes. Finally, relative ratios between the average KD values from columns (D) and (G) are expressed as “fold bias” in column (H). […] This is one way of quantitatively representing and comparing inherent bias of antibodies to their target complexes.
Average KD values between the two matrix-associated and cell-associated complexes are calculated, respectively (see columns (D) and (G)). These average KD values can then be used to ask whether bias in binding activities exists between complexes associated with matrix vs. complexes associated with cell surface (e.g., immune cells). Bias may be expressed as “fold-difference” in the average KD values, as illustrated in Table 8.

Molecule	Kd [nM]
B1	3.96
B2	14.2
B3	12.7
B4	8.4
B5	7.11

same assay, conditions: ratio of average KD cell-associated / matrix-associated

Molecule	(H) G/D (fold bias) [fold]
B1	24.13
B2	31.3
B3	40.25
B4	26.58
B5	18.5156

test system: matrix-associated (LTBP1/LTBP3) and cell-associated (GARP/LRRC33) proTGFβ1 complexes; test: as above; format: binding, human; settings: average KD of (B) and (C), read-out: (D) ECM AVRG

Molecule	Kd [nM]
B1	0.164
B2	0.452
B3	0.316
B4	0.316
B5	0.384
